Several values for one entry are separate records, joined by “and”; a condition that tells them apart may be missing. Equal entries are not always repeated. Structures can show the parent of a compound that is named as a salt. Out of some 5,800 compounds screened, about 620 (11%) showed activity.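 How the source made its calls: active = score above a cut-off or among the top three wells of a plate; in these data no inactive exceeds 0.85.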 The list shows a part of the results, in another mix than the full data.
Tested on: primary human hepatic stellate cells (donor 1)
Assay: scaled lipid accumulation score (0 = DMSO-like, 1 = nortriptyline-like); higher = stronger HSC inactivation (lipid re-accumulation), active = hit call of the paper
Conditions: 48 h
[1] = library stock concentration: 10 mM
[2] = library stock concentration: 3.33 mM
[3] = library stock concentration: 1 mM
[4] = library stock concentration: 2 mM

In the case of `N[C@@H](Cc1cc(CP(=O)(O)O)cc(-c2ccccc2Cl)c1)C(=O)O`, the “scaled lipid accumulation score” value [1] is reported as inactive: ≤ -0.006.
With `Cc1c(C(=O)Nc2ccc(N3CCC(N4CCOCC4)CC3)c(C#N)c2)cnn1-c1ccc(Cl)cc1` the “scaled lipid accumulation score” value [2] was inactive: 0.756 and the “scaled lipid accumulation score” value [1] was inactive: 0.699.
With `OCC1OC(n2cnc3c(NC4CCCC4)nc(Cl)nc32)C(O)C1O` (centres undefined) [2-Chloro-N6-cyclopentyladenosine] the “scaled lipid accumulation score” value [1] was inactive: 0.043.
`O=c1c(-c2ccc(O)cc2)coc2cc(O)ccc12` [Daidzein] was tested, and the “scaled lipid accumulation score” value [3] was inactive: ≤ 0 and the “scaled lipid accumulation score” value [2] was inactive: ≤ 0.
In the case of `CNCCCC12CCC(c3ccccc31)c1ccccc12.Cl` [Maprotiline HCl], the “scaled lipid accumulation score” value [1] is reported as active: 1.31.
With `CC1(C)CC[C@]2(C(=O)O)CC[C@]3(C)C(=CC[C@@H]4[C@@]5(C)CC[C@H](O)C(C)(C)[C@@H]5CC[C@]43C)[C@@H]2C1` [Oleanolic Acid] the “scaled lipid accumulation score” value [2] was inactive: ≤ 0 and the “scaled lipid accumulation score” value [1] was inactive: ≤ 0.
For `O=C(O)CCCCC(CCSCc1ccccc1)SCc1ccccc1` (centres undefined), the “scaled lipid accumulation score” value [2] was inactive: ≤ 0 and the “scaled lipid accumulation score” value [1] was inactive: ≤ 0.
`CC(C)NC[C@H](O)COc1cccc2ccccc12` [(S)-Propranolol hydrochloride] was tested, and the “scaled lipid accumulation score” value [1] was inactive: 0.445.
`CC(C)NC[C@H](O)COc1cccc2ccccc12` [(S)-(-)-Propranolol hydrochloride] was tested, and the “scaled lipid accumulation score” value [1] was inactive: 0.518.
With `CC(C)NC[C@H](O)COc1cccc2ccccc12` [(S)-propranolol hydrochloride] the “scaled lipid accumulation score” value was inactive: 0.444.
With `CC(=O)CCCCn1c(=O)c2c(ncn2C)n(C)c1=O` [Pentoxifylline] the “scaled lipid accumulation score” value was inactive: ≤ 0, the “scaled lipid accumulation score” value (library stock concentration: 7.2 mM) was inactive: 0.018 and inactive: ≤ 0 and the “scaled lipid accumulation score” value [1] was inactive: ≤ 0 and inactive: ≤ -0.055 and inactive: ≤ -0.027.
`Cc1c(NC(=O)OC[C@@H]2COCCN2)cn2ncnc(Nc3ccc4c(cnn4Cc4cccc(F)c4)c3)c12.Cl` was tested, and the “scaled lipid accumulation score” value [2] was active: 1.15 and the “scaled lipid accumulation score” value [1] was active: 1.2.
With `CN1C(=O)OC(C)(C)C1=O` [Trimethadione] the “scaled lipid accumulation score” value was inactive: ≤ 0 and the “scaled lipid accumulation score” value (library stock concentration: 14 mM) was inactive: ≤ 0.
In the case of `CN(C/C=C/c1ccccc1)Cc1cccc2ccccc12` [Naftifine hydrochloride], the “scaled lipid accumulation score” value is reported as inactive: ≤ 0.
For `Nc1c(CC(=O)O)cccc1C(=O)c1ccc(Br)cc1` [Bromfenac Sodium], the “scaled lipid accumulation score” value [2] was inactive: ≤ 0 and the “scaled lipid accumulation score” value [1] was inactive: 0.121.
In the case of `COc1cccc(Nc2c(C(N)=O)cnc3c(C)cc(S(=O)(=O)c4cccc(C(=O)N(C)C)c4)cc23)c1`, the “scaled lipid accumulation score” value [2] is reported as inactive: ≤ 0 and the “scaled lipid accumulation score” value [1] is reported as inactive: ≤ 0.
In the case of `C[C@]12C=CC(=O)C=C1CC[C@H]1[C@@H]3C[C@@H](O)[C@](O)(C(=O)CO)[C@@]3(C)C[C@H](O)[C@@]12F` [Triamcinolone], the “scaled lipid accumulation score” value is reported as inactive: 0.004, the “scaled lipid accumulation score” value [2] is reported as inactive: ≤ 0 and the “scaled lipid accumulation score” value (library stock concentration: 5.1 mM) is reported as inactive: ≤ 0. For the same compound, the “scaled lipid accumulation score” value [1] was inactive: ≤ 0.
With `CC(C(C)N1CC(=O)NC(=O)C1)N1CC(=O)NC(=O)C1` (centres undefined) the “scaled lipid accumulation score” value (library stock concentration: 17.7 mM) was inactive: ≤ -0.012.
With `CC1(C)O[C@@H]2C[C@H]3[C@@H]4CCC5=CC(=O)CC[C@]5(C)[C@@]4(F)[C@@H](O)C[C@]3(C)[C@]2(C(=O)CCl)O1` [Halcinonide] the “scaled lipid accumulation score” value was inactive: ≤ 0, the “scaled lipid accumulation score” value [2] was inactive: ≤ 0 and the “scaled lipid accumulation score” value [1] was inactive: ≤ -0.001 and inactive: 0.225.
`C[C@@H]1O[C@@H](OC[C@H]2O[C@@H](Oc3c(-c4ccc(OCCO)c(OCCO)c4)oc4cc(OCCO)cc(O)c4c3=O)[C@H](O)[C@@H](O)[C@@H]2O)[C@H](O)[C@H](O)[C@H]1O` [Troxerutin] was tested, and the “scaled lipid accumulation score” value [2] was inactive: ≤ 0 and the “scaled lipid accumulation score” value [1] was inactive: 0.014 and inactive: 0.055.
With `CCN(CC)C(=O)/C(C#N)=C/c1cc(O)c(O)c([N+](=O)[O-])c1` [Entacapone] the “scaled lipid accumulation score” value [2] was inactive: ≤ 0, the “scaled lipid accumulation score” value (library stock concentration: 6.6 mM) was inactive: 0.018 and the “scaled lipid accumulation score” value [1] was inactive: 0.074.
In the case of `CCCCCCCC/C=C\CCCCCCCC(=O)NCCO` [N-Oleoylethanolamine], the “scaled lipid accumulation score” value [1] is reported as inactive: 0.267.
For `CCCCCCCC/C=C\CCCCCCCC(=O)NCCO` [Oleylethanolamide], the “scaled lipid accumulation score” value [1] was inactive: 0.119.
For `CCCCCCCC/C=C\CCCCCCCC(=O)NCCO` [Oleoyl Ethanolamide], the “scaled lipid accumulation score” value [3] was inactive: 0.024.
In the case of `O=C(O)CCNc1cc(N2CCc3ccccc3CC2)nc(-c2cccnc2)n1`, the “scaled lipid accumulation score” value (library stock concentration: 80 uM) is reported as inactive: ≤ 0, the “scaled lipid accumulation score” value (library stock concentration: 400 uM) is reported as inactive: ≤ 0 and the “scaled lipid accumulation score” value [4] is reported as inactive: ≤ 0. For the same compound, the “scaled lipid accumulation score” value [1] was inactive: ≤ 0.
For `CC1(C)C(=O)N=C2C1=C(O)C(=O)c1ccccc12`, the “scaled lipid accumulation score” value [1] was active: 0.923.
For `CC(=O)NCC(=O)N[C@H](CCC(=O)O)C(=O)O` [N-Acetylglycyl-D-glutamic acid], the “scaled lipid accumulation score” value [1] was inactive: ≤ 0.
For `C[C@@H](O)[C@H]1C(=O)N2C(C(=O)O)=C(S[C@@H]3CN[C@H](C(=O)N(C)C)C3)[C@H](C)[C@H]12`, the “scaled lipid accumulation score” value [1] was inactive: ≤ 0.
For `C[C@@H](O)[C@H]1C(=O)N2C(C(=O)O)=C(S[C@@H]3CN[C@H](C(=O)N(C)C)C3)[C@H](C)[C@H]12` [Meropenem], the “scaled lipid accumulation score” value was inactive: ≤ 0, the “scaled lipid accumulation score” value [2] was inactive: 0.065 and the “scaled lipid accumulation score” value (library stock concentration: 5.2 mM) was inactive: ≤ 0. The “scaled lipid accumulation score” value [1] was inactive: ≤ 0.
In the case of `Cc1nc(Nc2ncc(C(=O)Nc3c(C)cccc3Cl)s2)cc(N2CCN(CCO)CC2)n1`, the “scaled lipid accumulation score” value [4] is reported as active: 1.18 and the “scaled lipid accumulation score” value [1] is reported as active: 1.48.
With `Cn1cc(C(=O)OCC2CCN(CCNS(C)(=O)=O)CC2)c2ccccc21` the “scaled lipid accumulation score” value [1] was active: 0.925.
For `CC(=O)O[C@H]1C[C@@H]2CC[C@@H]3[C@H](CC[C@@]4(C)[C@H]3C[C@H]([N+]3(C)CCCCC3)[C@@H]4OC(C)=O)[C@@]2(C)C[C@@H]1N1CCCCC1`, the “scaled lipid accumulation score” value [1] was inactive: ≤ 0.
With `CC(=O)O[C@H]1C[C@@H]2CC[C@@H]3[C@H](CC[C@@]4(C)[C@H]3C[C@H]([N+]3(C)CCCCC3)[C@@H]4OC(C)=O)[C@@]2(C)C[C@@H]1N1CCCCC1` [Vecuronium Bromide] the “scaled lipid accumulation score” value [2] was inactive: ≤ 0 and the “scaled lipid accumulation score” value [1] was inactive: ≤ 0.
For `CC1(C)C[C@@H]1C(=O)N/C(=C\CCCCSC[C@H](N)C(=O)O)C(=O)O` [Cilastatin sodium], the “scaled lipid accumulation score” value [1] was inactive: ≤ -0.001.
In the case of `CC1(C)C[C@@H]1C(=O)N/C(=C\CCCCSC[C@H](N)C(=O)O)C(=O)O`, the “scaled lipid accumulation score” value [1] is reported as inactive: ≤ 0.
`Cc1cc(Cn2cnc3c2C[C@@H](C(=O)O)N(C(=O)C(c2ccccc2)c2ccccc2)C3)ccc1N` was tested, and the “scaled lipid accumulation score” value [1] was inactive: ≤ 0.
`CCCCCC(=O)O[C@]1(C(C)=O)CC[C@H]2[C@@H]3CCC4=CC(=O)CC[C@]4(C)[C@H]3CC[C@@]21C` [Hydroxyprogesterone caproate] was tested, and the “scaled lipid accumulation score” value (library stock concentration: 4.7 mM) was inactive: ≤ -0.001 and the “scaled lipid accumulation score” value [1] was inactive: ≤ 0.
